From patent US20240409609A1, “REVERSIBLE LYSINE COVALENT MODIFIERS OF EGFR AND USES THEREOF” (Terremoto Biosciences, Inc., priority 2021, published 2024)

Columns and labels:
[1] = target: EGFR T790M C797S L858R in Ba/F3 cells (Homo sapiens (Human), UniProt P00533, C797S/L858R/T790M); test: Ba/F3 pEGFR assay (AlphaLISA p-EGFR Tyr1068); type: cell-based; conditions: 2 hrs treatment
Procedure: (§1) Cellular activity was determined using the Ba/F3 system for studying oncogenic mutant kinases (Warmuth 2007). […] Transduced cells were maintained in RPMI 1640 with 10% FBS. EGFR WT transduced cells were grown in media supplemented with EGF. To assay cellular activity of inhibitors, cells were treated with inhibitor from 1000X DMSO stock dilutions and incubated for 2 hrs at 37° C. 5% CO2. Subsequently, p-EGFR (Tyr1068) was quantified using a commercial sandwich immunoassay (PerkinElmer AlphaLISA SureFire assay; ALSU-PEGFR) according to the manufacturer's instructions. […] Curr Opin Oncol 19, 55-60 (2007), which is incorporated herein in its entirety.

[2] = target: EGFR del746-750 T790M C797S in Ba/F3 cells (Homo sapiens (Human), UniProt P00533, C797S/DEL746-750/T790M); test: Ba/F3 pEGFR assay (AlphaLISA p-EGFR Tyr1068); type: cell-based; conditions: 2 hrs treatment; read-out: pEGFR Ba/F3 del19/T790M/C797S IC50
Procedure: as §1

[3] = target: EGFR (d746-750) T790M C797S (Homo sapiens (Human), UniProt P00533, C797S/DEL746-750/T790M); test: EGFR biochemical assay (AssayQuant chelation-enhanced fluorescence)
[4] = target: EGFR L858R/T790M/C797S (Homo sapiens (Human), UniProt P00533, C797S/L858R/T790M); test: as above
[5] = read-out: AssayQuant EGFR del19/TM/CS IC50, 30 min preincubation, reaction time 150 min
[6] = read-out: AssayQuant EGFR LR/TM/CS IC50, 30 min preincubation, reaction time 150 min

| SMILES | pIC50 [1] | pIC50 [2] | pIC50 [3, 5] | pIC50 [4, 6] | pIC50 [3] | pIC50 [4] |
| --- | --- | --- | --- | --- | --- | --- |
| COc1cc(N2CCC(N3CCN(C)CC3)CC2)ccc1Nc1ncc(-c2cc(F)c(O)c(C=O)c2)c(Nc2ccccc2)n1 [Compound 9] | 6.22 | 6.06 | 7.45 | 7.68 | – | – |
| COc1cc(N2CCC(N3CCN(C)CC3)CC2)ccc1Nc1ncc(-c2cc(C=O)c(O)cc2C)c(Nc2ccccc2)n1 [Compound 12] | – | – | 6.17 | 6.17 | – | – |
| COc1cc(N2CCC(N3CCN(C)CC3)CC2)ccc1Nc1ncc(-c2cc(C=O)c(O)cc2OC)c(Nc2ccccc2)n1 [Compound 13] | < 5.00 | < 5.00 | < 6.00 | 6.54 | – | – |
| COc1cc(N2CCC(N3CCN(C)CC3)CC2)ccc1Nc1ncc(-c2cccc(C=O)c2)c(Nc2ccccc2)n1 [Compound 14] | < 5.00 | < 5.00 | 6.77 | 7.74 | – | – |
| CNc1nc(Nc2ccc(N3CCC(N4CCN(C)CC4)CC3)cc2OC)ncc1-c1ccc(O)c(C=O)c1 [Compound 15] | 5.16 | 5.20 | 6.68 | 7.24 | – | – |
| COc1cc(N2CCC(N3CCN(C)CC3)CC2)ccc1Nc1ncc(C#Cc2cccc(C=O)c2O)c(Nc2ccccc2)n1 [Compound 16] | – | – | < 6.00 | < 6.00 | – | – |
| COc1cc(N2CCC(N3CCN(C)CC3)CC2)ccc1Nc1ncc(C#Cc2cccc(O)c2C=O)c(Nc2ccccc2)n1 [Compound 18] | 6.41 | 6.20 | 6.76 | 7.94 | – | – |
| COc1cc(N2CCC(N3CCN(C)CC3)CC2)ccc1Nc1ncc(-c2ccc(NC(C)=O)c(C=O)c2)c(Nc2ccccc2)n1 [Compound 20] | < 5.00 | 5.25 | < 6.00 | < 6.00 | – | – |
| COc1cc(N2CCC(N3CCN(C)CC3)CC2)ccc1Nc1ncc(-c2ccc(O)c(C=O)c2)c(Oc2ccccc2)n1 [Compound 21] | – | – | < 6.00 | < 6.00 | – | – |
| COc1cc(N2CCC(N3CCN(C)CC3)CC2)ccc1Nc1ncc(-c2ccc(O)c(C=O)c2)c(-c2ccccc2)n1 [Compound 22] | – | – | 7.01 | 8.22 | – | – |
| COc1cc(N2CCC(N3CCN(C)CC3)CC2)ccc1Nc1ncc(-c2ccc(C=O)c(O)c2)c(Nc2ccccc2P(C)(C)=O)n1 [Compound 24] | – | – | < 6.00 | 7.66 | – | – |
| COc1cc(N2CCC(N3CCN(C)CC3)CC2)ccc1Nc1ncc(Cl)c(Nc2cccc(-c3cccc(C=O)c3O)c2)n1 [Compound 25] | – | – | < 6.00 | 6.41 | – | – |
| COc1cc(N2CCC(N3CCN(C)CC3)CC2)ccc1Nc1ncc(-c2ccc(O)c(C=O)c2)c(Nc2ccccc2P(C)(C)=O)n1 [Compound 27] | – | – | 8.06 | 7.82 | – | – |
| COc1cc(N(C)CCN(C)C)c(NC(C)=O)cc1Nc1nccc(-c2cn(Cc3cccc(O)c3C=O)c3ccccc23)n1 [Compound 28] | < 5.00 | < 5.00 | < 6.00 | < 6.00 | – | – |
| COc1cc(N(C)CCN(C)C)c(NC(C)=O)cc1Nc1nccc(-c2cn(Cc3ccc(C=O)c(O)c3)c3ccccc23)n1 [Compound 29] | < 5.00 | < 5.00 | 6.17 | < 6.00 | – | – |
| COc1cc(N(C)CCN(C)C)c(NC(C)=O)cc1Nc1nccc(-c2cn(Cc3ccc(O)c(C=O)c3)c3ccccc23)n1 [Compound 30] | 5.33 | < 5.00 | 6.90 | 7.12 | – | – |
| COc1cc(N(C)CCN(C)C)ccc1Nc1ncc(Cl)c(-c2cn(Cc3cccc(C=O)c3O)c3ccccc23)n1 [Compound 31] | – | – | – | – | 6.24 | 6.73 |
| COc1cc(N2CCC(N3CCN(C)CC3)CC2)ccc1Nc1ncc(Cl)c(Nc2ccc(NCc3ccc(C=O)c(O)c3)cc2)n1 [Compound 33] | 5.48 | 5.44 | 7.20 | 7.86 | – | – |
| COc1cc(N2CCC(N3CCN(C)CC3)CC2)ccc1Nc1ncc(Cl)c(Nc2ccccc2-c2c(OC)ccc(C=O)c2O)n1 [Compound 34] | 5.32 | 5.00 | 7.79 | 7.94 | – | – |
| COc1cc(N2CCC(N3CCN(C)CC3)CC2)ccc1Nc1ncc(Cl)c(Nc2ccc(O)c(C=O)c2)n1 [Compound 35] | 5.51 | < 5.00 | 7.53 | 7.14 | – | – |

| SMILES | pIC50 [1] | pIC50 [2] | pIC50 [3, 5] | pIC50 [4, 6] | pIC50 [3] | pIC50 [4] |
| --- | --- | --- | --- | --- | --- | --- |
| CC(C)c1ccc(N2CC(CS(C)(=O)=O)C2)c2cnc(Nc3ccnc(N(C)Cc4cccc(O)c4C=O)n3)cc12 [Compound 43] | 6.16 | 5.21 | 7.26 | 8.28 | – | – |
| CC(C)c1ccc(N2CC(CS(C)(=O)=O)C2)c2cnc(Nc3ccnc(N(C)CCc4cccc(O)c4C=O)n3)cc12 [Compound 45] | < 5.00 | < 5.00 | < 6.00 | 7.36 | – | – |
| CC(C)c1ccc(N2CC(CS(C)(=O)=O)C2)c2cnc(Nc3ccnc(-c4cccc(-c5cccc(O)c5C=O)c4)n3)cc12 [Compound 46] | 6.14 | 5.69 | 6.73 | 7.27 | – | – |
| CC(C)c1ccc(N2CC(CS(C)(=O)=O)C2)c2cnc(Nc3ccnc(-c4ccc(O)c(C=O)c4)n3)cc12 [Compound 47] | – | – | 7.81 | 7.00 | – | – |
| CC(C)c1ccc(N2CC(CS(C)(=O)=O)C2)c2cnc(Nc3ccnc(Oc4cccc(O)c4C=O)n3)cc12 [Compound 48] | < 5.00 | < 5.00 | < 6.00 | 6.22 | – | – |
| CC(C)c1ccc(N2CC(CS(C)(=O)=O)C2)c2cnc(Nc3ccnc(N(C)Cc4cccc(C=O)c4O)n3)cc12 [Compound 49] | 5.05 | < 5.00 | 6.10 | < 6.00 | – | – |
| CC(C)c1ccc(N2CC(CS(C)(=O)=O)C2)c2cnc(Nc3ccnc(-c4cccc(C=O)c4O)n3)cc12 [Compound 50] | – | – | < 6.00 | < 6.00 | – | – |
| CN1CCN(Cc2ccc3[nH]/c(=N\C(=O)c4cc(F)cc(Oc5cccc(O)c5C=O)c4)n(CC(C)(C)O)c3c2)CC1 [Compound 53] | 7.28 | 7.03 | 8.64 | 9.56 | – | – |
| CN1CCN(Cc2ccc3[nH]/c(=N\C(=O)c4cncc(Oc5cccc(O)c5C=O)c4)n(CC(C)(C)O)c3c2)CC1 [Compound 55] | 7.51 | 7.49 | 8.66 | 9.51 | – | – |
| CN1CCN(c2ccc3[nH]/c(=N\C(=O)c4ccnc(Oc5cccc(O)c5C=O)c4)n(CC(C)(C)O)c3c2)CC1 [Compound 56] | < 5.00 | 6.15 | 7.00 | 7.06 | – | – |
| CN1CCN(Cc2ccc3[nH]/c(=N\C(=O)c4cc(C=O)cc(Oc5cccc(O)c5C=O)c4)n(CC(C)(C)O)c3c2)CC1 [Compound 58] | 6.39 | 6.34 | 8.61 | 9.37 | – | – |
| Cc1ccc(C(=O)/N=c2\[nH]c3ccc(CN4CCN(C)CC4)cc3n2CC(C)(C)O)cc1Oc1cccc(O)c1C=O [Compound 59] | 6.44 | 6.53 | 8.22 | 9.37 | – | – |
| CN1CCN(Cc2ccc3[nH]/c(=N\C(=O)c4cc(F)nc(Oc5cccc(O)c5C=O)c4)n(CC(C)(C)O)c3c2)CC1 [Compound 60] | 6.91 | 6.93 | 8.58 | 9.36 | – | – |
| Cc1cc(Oc2cccc(O)c2C=O)cc(C(=O)/N=c2\[nH]c3ccc(CN4CCN(C)CC4)cc3n2CC(C)(C)O)c1 [Compound 61] | 7.01 | 6.50 | 7.82 | 9.29 | – | – |
| CC(C)(O)Cn1/c(=N/C(=O)c2ccnc(Oc3cccc(O)c3C=O)c2)[nH]c2ccc(CN3CC(C(C)(C)O)C3)cc21 [Compound 63, (E)-2-(2-formyl-3-hydroxyphenoxy)-N-(1-(2-hydroxy-2-methylpropyl)-6-((3-(2-hydroxypropan-2-yl)azetidin-1-yl)methyl)-1,3-dihydro-2H-benzo[d]imidazol-2-ylidene)isonicotinamide] | 6.62 | 6.56 | 8.34 | 9.28 | – | – |
| CC(C)Cn1/c(=N/C(=O)c2ccnc(Oc3cccc(O)c3C=O)c2)[nH]c2ccc(CN3CCN(C)CC3)cc21 [Compound 65] | 7.41 | 7.18 | 8.80 | 9.21 | – | – |
| CN1CCN(Cc2ccc3[nH]/c(=N\C(=O)c4ccnc(Oc5cc(F)cc(O)c5C=O)c4)n(CC(C)(C)O)c3c2)CC1 [Compound 66] | 6.69 | 6.43 | 8.22 | 9.20 | – | – |
| CN1CCN(Cc2ccc3[nH]/c(=N\C(=O)c4ccnc(Oc5c(F)ccc(O)c5C=O)c4)n(CC(C)(C)O)c3c2)CC1 [Compound 68] | 6.29 | 6.34 | 8.53 | 9.05 | – | – |
| CN1CCN(Cc2ccc3[nH]/c(=N\C(=O)c4ccnc(C#Cc5cccc(NS(C)(=O)=O)c5C=O)c4)n(CC(C)(C)O)c3c2)CC1 [Compound 69] | < 5.00 | < 5.00 | 8.57 | 9.04 | – | – |
| CC(C)(O)Cn1/c(=N/C(=O)c2ccnc(C#Cc3cccc(C=O)c3O)c2)[nH]c2ccccc21 [Compound 137] | – | – | 6.23 | 6.13 | – | – |

pIC50: −log10 of the molar value. Where two headings read alike, the source gives them in different places.
